According to PubChem BioAssay AID1259400 (National Center for Advancing Translational Sciences (NCATS), 2018):
Values joined by “and” are separate entries in the source; they are usually repeats but may differ in a detail not shown here. Equal entries are not always repeated. Hit rate of the full screen: of about 350,000 compounds, about 2,100 (0.6%) were called active. The shares of active, inactive and inconclusive entries below differ from those in the screen.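 How the source made its calls: active means activity change of -60% or lower, but not beyond a set lower limit; inconclusive means change between -60% and -40%, or beyond the set limit; inactive means change above -40%.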

molecular target: Relaxin receptor 1 (Homo sapiens) (UniProt Q9HBX9); test: qHTS Assay for Antagonists of the Relaxin Receptor RXFP1; conditions: HEK293-RXFP1, relaxin-stimulated cAMP HTRF, 30 min; at 57.5 µM; stronger effect = lower value
Sequence of UniProt Q9HBX9 (Q9HBX9 whole entry, looked up): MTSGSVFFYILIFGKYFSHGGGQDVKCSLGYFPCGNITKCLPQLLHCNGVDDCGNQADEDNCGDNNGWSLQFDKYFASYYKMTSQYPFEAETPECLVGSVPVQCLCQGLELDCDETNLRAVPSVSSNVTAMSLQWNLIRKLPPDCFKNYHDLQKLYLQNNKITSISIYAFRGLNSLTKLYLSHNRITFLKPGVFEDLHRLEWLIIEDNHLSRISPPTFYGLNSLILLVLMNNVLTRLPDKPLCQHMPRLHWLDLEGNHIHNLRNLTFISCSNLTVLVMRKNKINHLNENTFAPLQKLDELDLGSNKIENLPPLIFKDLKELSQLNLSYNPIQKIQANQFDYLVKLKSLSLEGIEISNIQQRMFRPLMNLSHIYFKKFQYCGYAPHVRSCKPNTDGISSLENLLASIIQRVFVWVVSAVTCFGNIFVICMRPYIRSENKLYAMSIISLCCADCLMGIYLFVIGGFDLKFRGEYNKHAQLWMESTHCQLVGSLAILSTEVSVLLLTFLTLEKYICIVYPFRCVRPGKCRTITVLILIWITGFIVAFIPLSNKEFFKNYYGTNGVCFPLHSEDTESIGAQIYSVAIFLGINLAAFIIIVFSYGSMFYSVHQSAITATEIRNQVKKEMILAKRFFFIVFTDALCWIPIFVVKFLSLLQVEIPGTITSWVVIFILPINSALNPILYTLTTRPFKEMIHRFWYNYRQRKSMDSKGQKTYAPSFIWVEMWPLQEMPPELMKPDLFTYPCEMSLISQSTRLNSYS
On the % scale 0 is the no-effect control and ±100 the full control effect.

Structure (SMILES)	activity change, negative = inhibition
O=C(NN=C1CCCC1)c1ccc(O)cc1	inactive: 5.04%
COC(=O)c1c(NC(=O)c2cc(=O)c3c(C)cc(C)cc3o2)sc2c1CCCC2	inactive: 3.21%
CC(C)Cn1c(SCC(=O)NC(=O)NC2CCCC2)nc2ccccc21	active: -66%
CCCCC1CCC(C(=O)N2CC(=O)Nc3ccc(F)cc3C2c2ccc(F)cc2)CC1 (centres undefined)	inconclusive: -52.9%
COc1ccc(CSC2=NCCN2)cc1Cl	inactive: 8.68%
COc1ccccc1NC(=O)Nc1ccnn1C1CCCCC1	inactive: -3.08%
COc1cc(C(=O)N/C(=C\c2cn(C)c3ccccc23)C(=O)NCCN2CCOCC2)cc(OC)c1OC	inconclusive: -40.3%
O=C1c2[nH]nc(-c3ccc(F)cc3)c2C(c2ccccc2F)N1c1ccccc1 (centres undefined)	active: -68.5%
CCCNC(=O)C(=O)NCC(c1ccc2c(c1)OCO2)N1CCN(c2ccc(F)cc2)CC1 (centres undefined)	inactive: 9.99%
COC(=O)c1ccc(/C=C/C(=O)c2ccc(OC)c(OC)c2)cc1	inconclusive: -46.5%
Cc1cccc(C)c1NC(=O)CSc1nnc(-c2ccco2)c(-c2ccco2)n1	active: -67.8%
COc1ccc(CC(=O)N2CCN(S(=O)(=O)c3ccc(Cl)s3)CC2)cc1	inactive: 5.66%
Cc1ccccc1C(=O)Nc1cccc(NC(=O)c2cccnc2)c1	inactive: -14.8%
CCC(=O)c1ccc(OC(=O)Cc2ccc(OC)cc2)cc1	active: -113%
O=C(c1ccccc1)N1N=C(c2ccc(F)cc2)CC1(O)C(F)(F)F (centres undefined)	inconclusive: -53.9%
O=C(Nc1cc(F)ccc1F)c1cccc(-n2cnnn2)c1	inconclusive: -46.3%
O=S(=O)(/N=C(/NS(=O)(=O)c1ccccc1)c1ccccc1)c1ccccc1	inconclusive: -46.4%
Cc1ccc(CS(=O)(=O)c2ncc(Cl)c(C(=O)Nc3nnc(C(C)C)s3)n2)cc1	active: -78% and active: -93.3%
Fc1ccc(-n2cc(-c3ccccc3)c3c(=S)nc[nH]c32)cc1	inconclusive: -47.4%
CCCCCC(=O)Nc1cc(N(C)C)nc2ccccc12	inactive: -4.3%
CN(CC(=O)Nc1cccc(F)c1)C(=O)CCCNC(=O)c1ccc(Cl)cc1	inactive: 1.98%

Structure (SMILES)	activity change, negative = inhibition
CS(=O)(=O)c1ncc(Cl)c(C(=O)Nc2ccc3ccccc3c2)n1	active: -93%
COc1cc(NC(=O)COc2c(C)cc(C)cc2[N+](=O)[O-])c(OC)cc1Cl	inconclusive: -55.3%
CC1CCN(CCCn2c(=S)[nH]c3ccccc3c2=O)CC1	inconclusive: -51.6%
N#Cc1c2c(c(-c3ccccc3Cl)[nH]c1=S)CCCC2	inconclusive: -45.3%
Cc1ccc2sc(N(CCCN(C)C)C(=O)c3ccc(Br)s3)nc2c1C	active: -77.2%
O=[N+]([O-])c1c(Nc2ccccn2)cc(Cl)c2nonc12	inconclusive: -42.7%
O=C(NCC1CCCO1)c1ccc(Cn2c(=S)[nH]c3ccccc3c2=O)cc1 (centres undefined)	inconclusive: -56.9%
Cc1ccc(S(=O)(=O)c2c(N)n(CCN3CCOCC3)c3nc4ccccc4nc23)cc1C	inactive: 8.68%
COc1ccc(NC(=O)C(=O)NCC(c2cccnc2)N2CCc3ccccc32)cc1OC (centres undefined)	inconclusive: -48.1%
Cc1ccc(N2C(=O)CCSC23C(=O)N(Cc2ccccc2)c2ccccc23)cc1F (centres undefined)	inconclusive: -54.3%
COc1ccc(-c2n[nH]c(C(F)(F)F)c2-c2cc3ccccc3o2)c(O)c1	active: -69.3%
CCOc1ccc2nc(NC(=O)CS(=O)(=O)c3ccc(Cl)cc3)sc2c1	inconclusive: -44.2%
CCN(CC)C(=O)C1CCN(S(=O)(=O)c2ccc3c(c2)CCCN3C(=O)C2CCC2)CC1	active: -79%
COc1ccc(CN2CCNC(=O)C2CC(=O)NC2CCCCCCC2)cc1C (centres undefined)	inconclusive: -40.3%
Cc1nn(-c2ccccn2)c2c1-c1nc(N)ncc1CC2	inactive: -3.06%
O=C1NC(=O)C2(COC(c3cccc([N+](=O)[O-])c3)OC2)S1 (centres undefined)	inconclusive: -45%
Cc1ccc(C(C)C)c(OCC(=O)N2CCC(c3nc4ccccc4o3)CC2)c1	active: -98.3%
CC(C)(C)c1ccc2c(c1)OC(C(=O)N/N=C/c1ccc([N+](=O)[O-])o1)CO2 (centres undefined)	inconclusive: -43.9%
COc1ccc2[nH]c(CN3CCC(CO)(CCOc4ccccc4)CC3)c(C)c2c1	active: -70.5%
CCCC(=O)OCCNc1cc(Sc2nccn2C)c2nonc2c1[N+](=O)[O-]	active: -80.8%
O=C(NC1CCCCC1)c1ccc(CSc2nc3cccnc3n2Cc2ccc(F)cc2)cc1	inactive: 3.2%

Structure (SMILES)	activity change, negative = inhibition
CCc1ccc(CN2CCc3nc(Nc4ccccc4)ncc3C2)cc1	active: -65.2%
CCn1c(C(=O)N2CCC(C(=O)N3CCN(c4cc(C)ccc4C)CC3)CC2)cc2sccc21	inconclusive: -51.1%
COCc1cccc(N2C(=O)CC(C3C=C(C)C4C(=O)N(c5cccc(COC)c5)C(=O)C4C3)C2=O)c1 (centres undefined)	inconclusive: -41.6%
CCCNC(=O)c1cnn2c(C)c(Cc3c(C)cc(C)cc3C)c(C)nc12	inconclusive: -44.3%
O=C(NC1C2CC3CC(C2)CC1C3)c1ccc(Br)o1 (centres undefined)	inconclusive: -51.1%
CCCOc1ccc(/C=N/Nc2ccccc2[N+](=O)[O-])c(O)c1	inactive: 0.479%
Cc1ccc(Cl)cc1N1CCN(CC(=O)NC2CCCc3ccccc32)CC1 (centres undefined)	inconclusive: -46.5%
Cc1nc(-c2ccc(S(=O)(=O)N3CCN(c4cccc(C)c4C)CC3)cc2)co1	inconclusive: -46.6%
CC1CCC(C(C)C)C(OC(=O)Cn2c(-c3ccc(Br)cc3)[n+](C)c3ccccc32)C1 (centres undefined)	active: -81.3% and inconclusive: -53.9%
CCN1CCN(c2ccc(S(=O)(=O)N3CCCCC3)cc2NC(=O)COc2ccccc2)CC1	inactive: -12.5%
CN(C)c1ccc(N=Cc2ccco2)cc1	inconclusive: -46.5%
COc1ccc2c(c1)/C(=N/OC(=O)c1cccs1)CCC2	inconclusive: -44.9%
CCOc1ccccc1CNC(=O)c1ccc(NC(=O)N2CCSc3ncccc32)cc1	inactive: -10.9%
C=CCn1cc(CN2CCC(C(=O)Nc3ccc(Oc4cccnc4)cc3)CC2)c(C)n1	inactive: 10.6%
COc1ccc(N(Cc2cccs2)C(=O)c2ccc(C(C)(C)C)cc2)cc1	active: -72.9%
CCOc1cc(/C=C2/NC(=O)N(CC(=O)Nc3cccc(C)c3)C2=O)ccc1OCC(N)=O	inactive: -8.13%
Cc1cc(C(=O)COC(=O)c2ccc(CO)cc2)c(C)n1CC1COc2ccccc2O1 (centres undefined)	inconclusive: -44.7%
CC(=O)OC1(C(C)=O)CCC2C3CC(C(F)(F)F)C4=CC(=O)CCC4(C)C3CCC21C (centres undefined)	inactive: -12.6%
Cc1ccc(CN2CC(C(=O)Nc3cc(C)ccn3)CC2=O)cc1 (centres undefined)	active: -118%
NC(=O)c1nsc(C(=O)N(c2cccc(F)c2)C(C(=O)NCC2CCCO2)c2c[nH]c3ccccc23)c1N (centres undefined)	inconclusive: -47.5%
C/C(=N\NC(=O)c1cc(-c2ccccn2)nc2ccccc12)c1cccc([N+](=O)[O-])c1	inconclusive: -53.1%

Structure (SMILES)	activity change, negative = inhibition
CC(=O)N1c2ccc(S(=O)(=O)N(C)CC(=O)NCc3ccccc3)cc2CC1C (centres undefined)	inconclusive: -55.1%
Cc1ccc(C(C(=O)NCC2CCCO2)N(C(=O)c2snc(C(N)=O)c2N)c2ccc(F)cc2)o1 (centres undefined)	inconclusive: -51.2%
CCCCn1c(=NC(=O)c2cccnc2)c(C(=O)OCC)cc2c(=O)n3ccccc3nc21	inactive: -19.4%
C=CCNC(=S)Nc1sc2c(c1C(=O)OCC)CC(C(C)C)OC2 (centres undefined)	active: -95.6%
O=[N+]([O-])c1cc(Cc2ccccc2)cc(C=Nc2ccc(N3CCOCC3)cc2)c1O	active: -75.3%
Cc1cccc(C)c1NCc1nnc(SCC(=O)Nc2nc(-c3ccccc3)cs2)n1-c1ccccc1	inactive: -5%
OCCCNCc1ccc(N(c2ccccc2)c2ccccc2)cc1	active: -69.2%
Cc1ccc(-c2csc(-c3cc4c([nH]c3=O)CC(c3ccccc3)CC4=O)n2)cc1 (centres undefined)	inactive: -19%
COc1ccc(CNC(=O)c2ccc3c(=O)n(CCCN4CCCC4=O)c(=S)[nH]c3c2)cc1	active: -116%
COc1ccc(NC(=O)CSc2nnnn2C)cc1S(=O)(=O)N1CCCCC1	active: -82%
O=C(NNC(=O)c1ccccc1C(=O)O)c1ccc(O)cc1	inconclusive: -54.9%
COC(=O)c1sc2nc(C)cc(C)c2c1N	inactive: -13.6%
O=C(COc1ccccc1)Nc1ccc2nc(SCC(=O)N3CCOCC3)sc2c1	inconclusive: -53.1%
CN1C(C(=O)Nc2ccc(OC(F)(F)F)cc2)=CC(c2cccs2)=NS1(=O)=O	inconclusive: -52.1%
OC(CNCCC(c1ccccc1)c1ccccc1)COc1ccccc1 (centres undefined)	inconclusive: -55%
Cc1ccc(C(C)C)c(OCC(O)CN2CCc3ccccc3C2)c1 (centres undefined)	active: -80.5%
COc1ccc(-c2nc(CSCC(=O)N3CCN(c4ccc(F)cc4)CC3)c(C)o2)cc1	inconclusive: -41.4%
COc1ccc(C2=NN(C(N)=S)C(c3ccccc3)C2)cc1 (centres undefined)	inconclusive: -41.1%
COc1cc(OC)c(NS(=O)(=O)c2ccc3oc(=O)c4ncn(C)c4c3c2)cc1Cl	inconclusive: -59.7%
CCOc1ccc(C(=O)Nc2ccccc2N2CCN(C(=O)c3ccccc3)CC2)cc1[N+](=O)[O-]	inactive: 2.33%
CCOc1cc(/C=C2\C(=O)N(Cc3ccco3)C(C)=C2C(=O)OC)ccc1O	inconclusive: -45.3%
